According to the BET-seq Pho4 binding data (Le et al. 2018):
The list shows a part of the results. The energies were worked out here from pooled read counts, against the library average; single values are noisy.

biological target: T1, Pho4 (S. cerevisiae) (UniProt P07270); assay: relative binding free energy (BET-seq); higher = weaker binding; settings: reference: library average
T1 sequence: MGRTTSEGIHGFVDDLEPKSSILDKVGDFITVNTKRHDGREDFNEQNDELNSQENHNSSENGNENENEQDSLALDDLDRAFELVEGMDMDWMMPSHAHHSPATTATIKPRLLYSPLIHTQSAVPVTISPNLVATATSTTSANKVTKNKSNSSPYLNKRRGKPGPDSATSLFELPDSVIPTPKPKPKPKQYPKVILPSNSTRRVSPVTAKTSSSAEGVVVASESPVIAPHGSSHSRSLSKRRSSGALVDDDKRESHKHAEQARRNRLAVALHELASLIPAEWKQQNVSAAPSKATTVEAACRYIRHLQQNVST

Relative binding free energy, 0.24 kcal/mol:
GTTTTCACGTGCATTA, GCGGGCACGTGAAGAG, AGTTTCACGTGTGGGG, AAAAGCACGTGAATTG, TCGGTCACGTGAAGTG, GGTTTCACGTGGACTA

Relative binding free energy, 0.34 kcal/mol:
GTTTTCACGTGCAGAT, GTTCTCACGTGAGGGA, TAATTCACGTGAGGAG

Relative binding free energy, -0.06 kcal/mol:
TGAGACACGTGTGCGG, AATAGCACGTGTTATG, GTATCCACGTGGTAGT, GTTAGCACGTGGATTA, AAGAGCACGTGTTGCG, TTGGGCACGTGCGGTA, TGTGCCACGTGGGGAG

Relative binding free energy, 0.01 kcal/mol:
AATTGCACGTGGTGGC, GAAGACACGTGGGTTT, TTTCGCACGTGCTTTA, TGGTGCACGTGTTGTA, CGTGTCACGTGCATGG

Relative binding free energy, -0.07 kcal/mol:
TATTGCACGTGTTACA, GTGAGCACGTGTGTCA, AGTTGCACGTGGCGTT, CGGGTCACGTGGGCCG, GTAAACACGTGGGTGG

Relative binding free energy, 0.22 kcal/mol:
TCTTTCACGTGAGGGA, TTATGCACGTGAGGAT, GAGTTCACGTGGGTGT, GTGGGCACGTGAAGCT, TATAGCACGTGAGGGC

Relative binding free energy, 0.08 kcal/mol:
TCGTGCACGTGTGGAT, TAGTACACGTGCTGGT, ATGAACACGTGGAAGG, TTTTACACGTGGCGCT

Relative binding free energy, 0.07 kcal/mol:
ATTTGCACGTGGAGCA, AGAGTCACGTGCGTAG, TTAATCACGTGCTCGG, TAGAACACGTGCGGTG, TCGGGCACGTGTTATT

Relative binding free energy, -0.14 kcal/mol:
TTTTGCACGTGGGCTT, TTAGCCACGTGGTTAT

Relative binding free energy, -0.23 kcal/mol:
TGTGGCACGTGGTGCG, TGGGGCACGTGGTGAT

Relative binding free energy, 0.1 kcal/mol:
TTGGTCACGTGACCGG

Relative binding free energy, 0.31 kcal/mol:
CAGATCACGTGTGGGA, AATTGCACGTGAGAGG, AACGTCACGTGATGGG

Relative binding free energy, 0.16 kcal/mol:
CAGGACACGTGTGAGT, TGGTGCACGTGTCGGT

Relative binding free energy, 0.18 kcal/mol:
AAGGTCACGTGTGTAT, GAATGCACGTGAGGGA, GTCAGCACGTGTGATG, TGAGGCACGTGAGATG

Relative binding free energy, -0.13 kcal/mol:
TGAGGCACGTGGACGG, TGATGCACGTGGTGCT

Relative binding free energy, -0.08 kcal/mol:
CGGGGCACGTGTCTGG, TTTAACACGTGGGGAG, GAAGGCACGTGTGCGT, AAGAGCACGTGTTTAT, GTGGGCACGTGACTTT, ATGGGCACGTGTTGAA, TGAGTCACGTGGGTTC

Relative binding free energy, -0.12 kcal/mol:
AGGTGCACGTGGGGGG, CAGTACACGTGGTTGT, ATTGGCACGTGTCAGT, TTTAGCACGTGTCCGT, TGTGGCACGTGTCTAA, ATCTGCACGTGGTGGA

Relative binding free energy, 0.46 kcal/mol:
AGGTTCACGTGAAAAT

Relative binding free energy, -0.11 kcal/mol:
GGGTGCACGTGGGGGG, GGAGCCACGTGGTGGT

Relative binding free energy, 0.13 kcal/mol:
GGAGCCACGTGAGGGC, TTCATCACGTGTAAGT, ATTAACACGTGGCGGA, ATTTTCACGTGGGGAA, TGCGTCACGTGGAGAA, GTAAGCACGTGTCGGT

Relative binding free energy, 0.06 kcal/mol:
TAAATCACGTGGGTGG, ATGAGCACGTGATGTG, ATATTCACGTGGGTTA, GGCGACACGTGTAGGA, ATTGGCACGTGAGGGA, TGAGTCACGTGCATAT, TAAAGCACGTGAGGTG, ATGGGCACGTGAGTAT

Relative binding free energy, -0.04 kcal/mol:
GATAGCACGTGTTTAG, ATGTGCACGTGTGCGC, ATGTGCACGTGAGGAA, TGAGGCACGTGGGAAG, GGTAACACGTGCGGTG, TGTAACACGTGTAGTG, ATCTACACGTGGGTTG, GAATACACGTGGGTAT

Relative binding free energy, 0.05 kcal/mol:
ATTTGCACGTGTTATT, TAATGCACGTGCGTAA, CGTTGCACGTGTTCGT, ATGAACACGTGTGGTT, TCCTGCACGTGTTATG

Relative binding free energy, 0.35 kcal/mol:
ATGTTCACGTGTCGAA, ATTTTCACGTGAGCAT, TGGAACACGTGAAGGA

Relative binding free energy, -0.25 kcal/mol:
TTGCGCACGTGGGTAG

Relative binding free energy, 0.11 kcal/mol:
GTATACACGTGGATGT, CATGGCACGTGTTAAT, TACGTCACGTGCAGGT, GAGTACACGTGTTAGT

Relative binding free energy, 0.39 kcal/mol:
GAGTTCACGTGTGGCT, TGGTTCACGTGAGTTG, TGATTCACGTGAGCTG

Relative binding free energy, -0.18 kcal/mol:
TGTGGCACGTGGGGCC

Relative binding free energy, 0.44 kcal/mol:
ATCTTCACGTGAGGAT

Relative binding free energy, -0.17 kcal/mol:
TTAGGCACGTGCGTTC, GTGTGCACGTGGCGCT

Relative binding free energy, -0.34 kcal/mol:
ATAAGCACGTGGTATT

Relative binding free energy, 0.15 kcal/mol:
GGATTCACGTGGTGCA, TTGGTCACGTGACTTA, CTGTGCACGTGTAAAT

Relative binding free energy, 0.27 kcal/mol:
CGCGTCACGTGAAGGT, TTCAGCACGTGAAAGT

Relative binding free energy, -0.05 kcal/mol:
TTGGGCACGTGATCAG, GGGAGCACGTGGTGGC, TGAAACACGTGTGGTT, AGTGTCACGTGCATTT, TTTATCACGTGCATTA, TCGTGCACGTGCTGTG, TCATACACGTGGAGGG, TTTTGCACGTGCGTAC, TGGAGCACGTGGAGCA

Relative binding free energy, 0.3 kcal/mol:
GGTAGCACGTGAGGGC, GGTGTCACGTGTGATG

Relative binding free energy, 0.02 kcal/mol:
TCAGGCACGTGGATGG, TTGACCACGTGTGTAG, GATGCCACGTGGGGAG, TTTGTCACGTGTCATT, GTGAACACGTGTTTAG, AGGTACACGTGCTGAT

Relative binding free energy, -0.16 kcal/mol:
TGATGCACGTGGCTTA, TGAGGCACGTGTGCGT

Relative binding free energy, -0.02 kcal/mol:
CTTGACACGTGTTGGA, TTAGCCACGTGTAGGG, TATGGCACGTGGAACG, GTCGTCACGTGGCGTT, TATGACACGTGGTGGT, TATATCACGTGCTTTG, TTGAACACGTGGGGCT

Relative binding free energy, -0.09 kcal/mol:
AAAGTCACGTGGGCAG, TCGAGCACGTGTAGGT, AGTAGCACGTGCCTGG, GCATGCACGTGGGGTT, CATTGCACGTGTTATT

Relative binding free energy, 0.36 kcal/mol:
TTTGTCACGTGATTGC, TTTTTCACGTGACGGC

Relative binding free energy, 0.03 kcal/mol:
GTCTGCACGTGGGAGA, GGGATCACGTGGTACG

Relative binding free energy, 0.45 kcal/mol:
GGGTTCACGTGAGAGT

Relative binding free energy, 0 kcal/mol:
AATCGCACGTGTTTTA, TGGACCACGTGTGGGG, GGTAACACGTGTATTT, TATAACACGTGTAAGG, GGGGACACGTGGACAG, TGGGCCACGTGTTGCG, TGGTACACGTGGCTGT, GCTGGCACGTGGAGGA, GTGTGCACGTGTATAG

Relative binding free energy, 0.23 kcal/mol:
GTTAGCACGTGAAGGA, TATATCACGTGTTGGC, GGGGTCACGTGATCGA

Relative binding free energy, 0.21 kcal/mol:
GAGTTCACGTGTATAT, AGGTTCACGTGGTCGT, TATTTCACGTGGTCTT

Relative binding free energy, -0.03 kcal/mol:
GGTAGCACGTGTTTTA, ATGGTCACGTGGGGCG, GGAGACACGTGGGCGT, GAGTGCACGTGCTTGG, ATTGGCACGTGAAGGA, GGATCCACGTGGGATG, AGGGTCACGTGTTCGA

Relative binding free energy, 0.09 kcal/mol:
GCAGTCACGTGGTGCG, TGTGGCACGTGAAAGA, ATGCACACGTGGATTG, GGTGTCACGTGGTTGA, GTGTGCACGTGGATCG, TAATTCACGTGTTTGC

Relative binding free energy, 0.04 kcal/mol:
GGTTGCACGTGTGCTA, TGCGACACGTGGGGGC

Relative binding free energy, -0.1 kcal/mol:
GTGACCACGTGGGAGT, AGTTGCACGTGGTGAG, GGTAGCACGTGCGTCG

Relative binding free energy, -0.15 kcal/mol:
ATGTGCACGTGCTTAG, CAAGGCACGTGTATGT

Relative binding free energy, 0.33 kcal/mol:
TATTTCACGTGGAACG, AAGTTCACGTGTGGAG

Relative binding free energy, 0.14 kcal/mol:
GTGTCCACGTGTGCTG, TAGTTCACGTGGTATA

Relative binding free energy, 0.19 kcal/mol:
AATTACACGTGTTATG, TACTTCACGTGGCGTG, GGAGTCACGTGCGGTC, AGAGGCACGTGAGGAT, AGTTGCACGTGAGGCA

Relative binding free energy, 0.32 kcal/mol:
TAGTTCACGTGATGTT

Relative binding free energy, -0.22 kcal/mol:
TTGAGCACGTGGTACG

Relative binding free energy, 0.28 kcal/mol:
AGTTTCACGTGATTAA, TGGATCACGTGAATGT

Relative binding free energy, 0.37 kcal/mol:
GAAGTCACGTGGATGC, CAGTTCACGTGAGGTG, TGTTTCACGTGACTGG

Relative binding free energy, 0.26 kcal/mol:
GAGATCACGTGGATGT, TGTCGCACGTGAAGTT, GCTTACACGTGGCGGT, AGGCTCACGTGATGAG

Relative binding free energy, -0.01 kcal/mol:
GGATGCACGTGTTCTG, TGGTGCACGTGCGGCG

Relative binding free energy, -0.2 kcal/mol:
TGTGCCACGTGGGGCG, GGTGGCACGTGCTCGT, GGGGGCACGTGGCCGG

Relative binding free energy, 0.12 kcal/mol:
ACTGACACGTGTTAGG, TTTCACACGTGGTTCG, AGGGTCACGTGGATAT, GGTCACACGTGGTTAT, AGCTTCACGTGGGTTT

Relative binding free energy, 0.17 kcal/mol:
GTATTCACGTGGGAGG, GTGTTCACGTGGTGTA, GTTATCACGTGGAAAG, AGAGTCACGTGTTATT, TATTGCACGTGATGTA

Relative binding free energy, 0.2 kcal/mol:
GGGAGCACGTGAGCTG, TATCTCACGTGTAGTT, TTCTTCACGTGGCTTT, CTTATCACGTGTGTGG
